# From PubChem BioAssay AID1347430 (National Center for Advancing Translational Sciences (NCATS), 2020)
# In all, about 91,000 compounds went through this assay and about 130 (0.14%) were called active. The inconclusive results got no clear call from the source; some entries with a clear call stand among them for comparison. Calls come from the whole dose curve; as a rule, active = well fitted inhibition curve with a large enough effect; inconclusive = small, poorly fitted or top-dose-only effect; inactive = flat fitted curve, though single readings scatter. Potencies beside an inconclusive call are fits to weak or partial responses and may not hold up.
# System: Uracil-DNA glycosylase
# Experiment: Primary qHTS assay for inhibitors of Activation Induced Cytidine Deaminase (AID): UDG Counterscreen signal; note: nearly all actives have a fitted effect of over 65% in size
# Details: FRET deamination/UDG coupled assay, UDG read, 4 h; activity change, negative = inhibition: at 115 µM (top of the series)
# Description: Assay Provider (PI) Patricia Gearhart Ph.D.
# National Institute on Aging
# National Institute of Health (NIH), Bethesda, MD
# Assay Provider (PI) Rahul Kohli Ph.D.
# Perelman School of Medicine
# University of Pennsylvania, Philadelphia, PA
# Activation-Induced Deaminase (AID) is a cytosine deaminase which converts cytosine into uracil within stretches of ssDNA. The presence of uracil in DNA initiates a cascade of mutagenic DNA repair to introduce point mutations and DNA double strand breaks. Specific targeting of AID to the immunoglobulin heavy chain loci (Igh) promotes mutagenesis in the antibody variable region for somatic hypermutation (SHM) or switch regions leading to class switch recombination (CSR). However, AID also plays a role in accumulating unnecessary mutations across the genome. Mis-targeting of AID results in the initiation of tumor development and leads to greater drug resistance among cancer cells when continually expressed. To identify an AID inhibitor, a small molecule library will be screened in collaboration with NCATS core facility at NIH. To confirm biological function, inhibitors will be examined in an in vitro murine B-cell activation assay and subsequent secondary validation screens. Top molecules will be further screened to identify inhibitory efficacy against a wild type primary splenocytes assay. Using these approaches, we hope to identify a small molecule with great efficacy and low toxicity for use as a molecular probe to further characterize AID's intricacies, or even as a therapeutic.
# A FRET based analysis of cytosine deamination, was developed to identify potential inhibitors of AID catalytic activity. This screen has two signal output, Read 1 evaluates the AID inhibition response. The second readout (Read 2) evaluates UDG response and is uses as a counterscreen to exclude false positive inhibitors. Inhibition in AID and inactivity in the UDG signal is the desired outcome for this assay.
# SEQUENCE No. (e.g., 1, 2, 3, etc.); […] (e.g., Cells, Incubation, Reagent, etc.); VALUE; DESCRIPTION
# 1a; Reagent; 3 uL; [4/3x] 1 uM AID/2.67 U/mL UDG
# 1b; Reagent; 3 uL; 2 U/mL UDG
# 1c; Reagent; 3 uL; 1 uM AID
# 2a; Compound; 46 nL; Follow-up plates (0.64 uM - 10 mM)
# 2b; Control; 46 nL; ATA ([…] - 10 mM)
# 3; Time; 10 min; incubation at room temperature
# 5; Time; 4 hr; incubation at room temperature
# 6; Reagent; 4 uL; [2x] 250 mM NaOH
# 7; Time; 15 sec; centrifuge at 1000 rpm
# 8; Time; 30 min; incubation at room temperature
# 9a; Detection; fluorescence (Read 1: AID); EnVision (PerkinElmer) plate reader, 540 excitation and 590 emission filters
# 9b; Detection; fluorescence (Read 2: UDG); EnVision (PerkinElmer) plate reader, 560 excitation and 665 emission filters
# NOTES (numbers refer to sequence above)
# 1a; Reagents were dispensed in a medium-binding black solid-bottom Greiner plates (789176F) using a BioRptr liquid dispenser. Dispense 3 uL of [4/3x] 1 uM AID (provided by Kohli lab) and [4/3x] 2 U/mL UDG (NEB M0280L) into columns 1, 2, 5 to 48.
# 1b; Dispense 3 uL of [4/3x] 2 U/mL UDG into column 3.
# 1c; Dispense 3 uL of [4/3x] 1 uM AID into column 4.
# 2a; Compound (7-points [uM] (0.64; 3.2; 16; 80; 400; 2,000; 10,000; 20,000) double pin-transferred (Dip Factor = 2) using the Kalypsys (Wako USA) pintool equipped with a 1536 pinhead for a final concentration range of 7.32 nM - 114 uM.
# 2b; 10 mM Aurintricarboxylic Acid (Sigma A1895) (ATA, 8-point, n = 2, 1:2.5 dilution in column 2) double pin-transferred (Dip Factor = 2) using the Kalypsys (Wako USA) pintool equipped with a 1536 pinhead for a [final] range of 186 nM - 114 uM.
# 3; Room temperature incubation.
# 4; Dispense 1 uL of substrate mixture from the Kohli lab [4x] […] DJC20 and [4x] 250 nM DJC23 into columns 1 to 48 .
# 5; Room temperature incubation.
# 6; Dispense 4 uL of substrate mixture [2x] 250 mM NaOH into columns 1 to 48.
# 7; Centrifugation step to remove bubbles.
# 8; Room temperature incubation
# 9a; Fluorescence signal (column label AID) was read using the EnVision plate reader. […]
# % is set by controls: 0 for no effect and ±100 for the full control effect; potency is the fitted concentration of half-maximal effect; tags give direction and shape of the fitted curve.
Structure (SMILES),Potency,"activity change, negative = inhibition"
Cc1oc2ccc(O)c(CN3CCN(C)CC3)c2c1C(=O)Nc1ccc(C(C)C)cc1,"inconclusive: 100 µM [inhibitor, single point]",
Cc1ccc(C)c(-c2ccc(=O)n(Cc3ccc(F)cc3Cl)n2)c1,"inconclusive: 39.8 µM [inhibitor, partial curve, poor fit]",
Cc1ccc(CNC(=O)c2sc3ncnc(N(C)C4CCCCC4)c3c2C)cc1,"inconclusive: 14.1 µM [inhibitor, partial curve, poor fit]",
O=S(=O)(NCC(c1ccco1)N1CCOCC1)c1ccc(Cl)cc1 (stereo not given),"inconclusive: 89.1 µM [inhibitor, partial curve, poor fit]",
CCOc1ccc(C(CC(=O)Nc2ccc(C)cc2C)N2Cc3ccccc3C2=O)cc1OC (stereo not given),"inconclusive: 89.1 µM [inhibitor, single point]",
CN(C)c1ccc(C2CC(c3c(O)n(C4CCCCC4)c(=O)[nH]c3=O)=Nc3ccccc3S2)cc1 (stereo not given),"inconclusive: 100 µM [inhibitor, single point]",
CCOc1ccc(NC(=O)N(Cc2ccc(CC)cc2)Cc2cn[nH]c2-c2ccc(OC)cc2)cc1,"inconclusive: 50.1 µM [inhibitor, partial curve, poor fit]",
Cc1cc(F)ccc1NC(=O)C(C(C)C)N1Cc2ccccc2C1=O (stereo not given),"inconclusive: 89.1 µM [inhibitor, single point]",
CC(OC(=O)c1cc(=O)[nH]c2ccccc12)C(=O)Nc1ccc(Cl)cc1 (stereo not given),,inactive: -2.28%
CCCOc1ccc(C2=NC(c3ccncc3)=Nc3ccc(C)cc3N2)cc1,"inconclusive: 14.1 µM [inhibitor, partial curve, poor fit]",
CCc1c(C)sc(NC(=O)c2cccc(OC)c2)c1C#N,,inactive: -4.28%
COc1ccc(C(=O)Nc2nc(-c3nnn(-c4ccc(F)cc4F)c3C)ns2)cc1,"inconclusive: 89.1 µM [inhibitor, single point]",
Cc1ccccc1CNC(=O)c1ccc(CN2C(=O)CCn3nccc32)cc1,"inconclusive: 79.4 µM [inhibitor, partial curve, poor fit]",
O=S(=O)(NCC(c1ccco1)N1CCOCC1)c1ccc(F)cc1 (stereo not given),"inconclusive: 89.1 µM [inhibitor, partial curve, poor fit]",
Cc1nc(-c2ccc(F)cc2)sc1CCNC(=O)c1ccc(OC(C)C)cc1,"inconclusive: 89.1 µM [inhibitor, single point]",
CCCN1CCN(CCCNC(=O)c2ccc3c(c2)sc2nc(-c4ccc(OCC)cc4)cn23)CC1,"inconclusive: 70.8 µM [inhibitor, partial curve, poor fit]",
CN(C)CCNC(=S)NCc1cccs1,,inactive: 4.33%
COc1ccc(CNC(=O)CCCN2C(=O)CCn3nc(-c4cn(C)c5ccccc45)cc32)cc1,"inconclusive: 79.4 µM [inhibitor, single point]",
O=C(NCCc1ccc(Cl)cc1)C1(c2cccs2)CCOCC1,"inconclusive: 79.4 µM [inhibitor, partial curve, poor fit]",
CCOc1ccc(C(=O)NCc2ccc3c(c2)CCN3C(=O)c2ccccc2)cc1,"inconclusive: 79.4 µM [inhibitor, single point]",

Structure (SMILES),Potency,"activity change, negative = inhibition"
CCCn1nc(C)cc1-c1nn2c(-c3cc(F)ccc3F)nnc2s1,,inactive: 3.09%
Cc1oc(-c2cccc(Cl)c2)nc1CN1CCC(C(=O)NCCCN2CCN(c3cccc(Cl)c3)CC2)CC1,"inconclusive: 89.1 µM [inhibitor, partial curve, poor fit]",
Cc1ccc(CNCc2c(C(=O)O)n(Cc3ccccc3C)c3cc(C)ccc23)cc1,"inconclusive: 39.8 µM [inhibitor, single point]",
O=S(Cc1cccc(C(F)(F)F)c1)Cc1ccc(Cl)cc1Cl (stereo not given),,inactive: -3.91%
COc1ccc(NC(c2ccc(F)cc2)c2nnc(-c3ccccc3Cl)o2)cc1Cl (stereo not given),"inconclusive: 89.1 µM [inhibitor, partial curve, poor fit]",
Cc1ccc(S(=O)(=O)C(CC(=O)c2ccccc2)C(=O)c2ccc(Cl)cc2)cc1 (stereo not given),,inactive: -16.4%
COc1cccc(-c2nc3c(c(C)nn3-c3ccccc3)c3cc(OC)c(OC)cc23)c1,"inconclusive: 100 µM [inhibitor, partial curve, poor fit]",
Cc1cccc(N2CCN(C(=O)Cn3ncc4c3-c3ccccc3OC4)CC2)c1C,"inconclusive: 89.1 µM [inhibitor, partial curve, poor fit]",
Cc1ccc(-c2noc(-c3ccc(N4CCCCC4C)c([N+](=O)[O-])c3)n2)cc1 (stereo not given),"inconclusive: 100 µM [inhibitor, single point]",
Cc1cc(O)c(C)c(C)c1O,"inconclusive: 50.1 µM [inhibitor, partial curve, poor fit]",
O=[N+]([O-])c1cccc(N/N=C/c2ccc3ncccc3c2)c1,,inactive: -6.82%
COc1ccc(-c2cc(C)no2)cc1S(=O)(=O)Nc1cccc(C(F)(F)F)c1,"inconclusive: 89.1 µM [inhibitor, single point]",
Cc1ccc(-c2csc(=Nc3ccccc3)n2CCCO)cc1,"inconclusive: 89.1 µM [inhibitor, single point]",
Cc1cc(C(=O)NC(C)c2cccc(C(F)(F)F)c2)c(C)o1 (stereo not given),,inactive: -4.47%
Cc1ccc(-n2c(SCc3nc(-c4ccccc4C)no3)nnc2-c2ccncc2)cc1C,"inconclusive: 25.1 µM [inhibitor, full curve]",
COc1ccc(NC(=O)c2c(C)oc3ccc(O)c(CN4CCCC(C)C4)c23)cc1Cl (stereo not given),,inactive: -2.81%
COc1ccc(-c2nc(CN3CCC(C(=O)NCCN(CC(C)C)CC(C)C)CC3)c(C)o2)cc1OC,"inconclusive: 89.1 µM [inhibitor, single point]",
CC(C)(C)C(=O)OCc1cc(=O)n2nc(C3CCCCC3)sc2n1,"inconclusive: 89.1 µM [inhibitor, single point]",
Cc1ccc(CCNc2nc3ccccc3c3nc(-c4ccccc4)nn23)cc1,"inconclusive: 100 µM [inhibitor, single point]",
Cc1cccc(N2CCN(S(=O)(=O)c3c(C)[nH]c(=O)[nH]c3=O)CC2)c1C,,inactive: -3.71%
